Reference: a compilation of properties of binary mixtures (doi:10.1524/zpch.2013.0328)
The densities may have been worked out from excess volumes.

Assay: xn = mol fraction of the nth substance listed
Settings: 100 kPa

CC(C)C[P+](C)(CC(C)C)CC(C)C.Cc1ccc(S(=O)(=O)[O-])cc1 + O
mass density [kg/m3]
Settings	298.15 K	303.15 K	313.15 K	323.15 K	333.15 K	343.15 K	353.15 K
x1 = 0.4387	1073.9	1069.2	1061	1054.6	1048.2	1041.8	1035.3
x1 = 0.9022	–	1069.2	1062.8	1056.7	–	1044.8	–

CC(CC(C)(C)C)CP(=O)([O-])CC(C)CC(C)(C)C.CCCCCCCCCCCCCC[P+](CCCCCC)(CCCCCC)CCCCCC + O
mass density [kg/m3]
Settings	298.15 K	303.15 K	313.15 K	323.15 K	333.15 K	343.15 K	353.15 K
x1 = 0.1299	–	905.1	898.4	891.6	884.8	877.9	870.9
x1 = 0.7942	887.5	884.4	878.3	–	866.4	860.4	854.5

CCCCCCCCCCCCCC[P+](CCCC)(CCCC)CCCC.CCCCCCCCCCCCc1ccc(S(=O)(=O)[O-])cc1 + O
mass density [kg/m3]
Settings	298.15 K	303.15 K	313.15 K	323.15 K	333.15 K	343.15 K	353.15 K
x1 = 0.3452	953.3	950	943.4	–	930.4	923.8	917.2
x1 = 0.892	–	952.5	942.8	936.6	930.4	924.3	–

CCCCCCCCCCCCCC[P+](CCCCCC)(CCCCCC)CCCCCC.N#C[N-]C#N + O
mass density [kg/m3]
Settings	303.15 K	313.15 K	323.15 K	333.15 K	343.15 K	353.15 K
x1 = 0.551	898.1	892.2	886.2	880.2	874.3	868.2
x1 = 0.8444	–	891.1	885.5	879.9	874.2	868.6

CCCCCCCC[N+](C)(CCCCCCCC)CCCCCCCC.O=S(=O)([N-]S(=O)(=O)C(F)(F)F)C(F)(F)F + O
x1 = 0.8467
Settings	mass density [kg/m3]
298.15 K	1107.2
303.15 K	1103
323.15 K	1088.5
333.15 K	1081.2
353.15 K	1066.5

CC[n+]1ccn(C)c1.O=S(=O)([N-]S(=O)(=O)C(F)(F)F)C(F)(F)F + O
mass density [kg/m3]
Settings	298.15 K	303.15 K	313.15 K	323.15 K	333.15 K	343.15 K
x1 = 0.7269	1502	1497	1487	1477	–	1456
x2 = 0.0086	–	1513	1503	–	1484	1474
